Measured values published in PubChem BioAssay AID588549 (Broad Institute, 2011).
Out of some 360,000 compounds screened, about 780 (0.22%) were called active. Inconclusive results, whose numbers are uncertain, are shown with a selection of clear calls. No stated cut-off is given here; in the data, active means inhibition above about 8.5% (passing the limit was not always enough); inconclusive means no clear call, values can overlap the other calls.

Tested on: Mycobacterium tuberculosis FadD28 fatty-acid-AMP ligase
Test: inhibitors of FadD28 bisubstrate probe binding, primary screen, biochemical, fluorescence polarization, single point (AID 588549)
Conditions: at 12.5 µM, stronger effect = higher value

| SMILES | inhibition |
| --- | --- |
| CCOC(=O)c1c(NC(=S)Nc2ccc(Cl)cc2)sc(C)c1C | inactive: 0.508% |
| Cc1cc2c(C(C)C)c(O)c(O)c(C=O)c2c(O)c1-c1c(C)cc2c(C(C)C)c(O)c(O)c(C=O)c2c1O | active: 51% |
| Cc1noc(/C=C/N(C)C)c1S(=O)(=O)N1CCCC(C(=O)NC2CCCCC2C)C1 (centres undefined) | inconclusive: 6.92% |
| CC1(C)CC(CC(=O)NC(=S)Nc2ccc([N+](=O)[O-])cc2)C(=O)O1 (centres undefined) | inactive: -0.358% |
| NC(N)=NS(=O)(=O)c1ccc(NC(=S)NC(=O)/C=C/c2ccc(F)cc2)cc1 | inconclusive: 3.56% |
| COc1ccc(C(=O)NNC(=O)C(=O)NCc2ccccc2)cc1 | inconclusive: 9.19% |
| O=C(Cn1c(=O)oc2cc(S(=O)(=O)N3CCCC3)ccc21)Nc1cccc(C(F)(F)F)c1 | active: 10.6% |
| Cc1cccc(/C=N/n2c(C3CCCCC3)n[nH]c2=S)c1 | active: 10.6% |
| Cc1onc(C(=O)N2CCC(C(N)=O)CC2)c1-c1ccccc1Cl | inconclusive: 5.19% |
| c1ccc(-c2onc(-c3ccco3)c2-c2ccc3[nH]ccc3c2)cc1 | inactive: -7.73% |
| COc1ccc(NC(=O)CSc2nccc(C)n2)cc1 | inactive: 0.0925% |
| O=C(/C=C/c1ccccc1)C1C(=O)c2ccccc2C1=O | inactive: 0.184% |
| CC1Oc2ccccc2C=C1/C=N/Nc1ccc(C(=O)O)cc1 (centres undefined) | inconclusive: 11.8% |
| COc1ccc2c(c1)cc(C(=O)N[C@@H](CCSC)C(=O)N1CCC(C(=O)O)CC1)n2C | inactive: -3.6% |
| COc1ccc(CCNc2oc(-c3ccc(OC)c(OC)c3)nc2C#N)cc1 | active: 12.3% |
| O=C(CCC1CCCN(C(=O)c2cc3ccccc3o2)C1)NCc1ccc(F)c(F)c1 (centres undefined) | inactive: -0.617% |
| CCOc1ccc(C=NNc2ccc(S(=O)(=O)Nc3ccccc3C(=O)O)cc2[N+](=O)[O-])cc1 | inactive: 5.24% |
| COc1cc(SC)ccc1C(=O)Nc1ccc(Cl)cn1 | inactive: -2.92% |
| Cc1ccc(C(=O)OCC(=O)c2ccc(Br)cc2)cc1S(=O)(=O)N1CCOCC1 | inconclusive: 10.5% |
| CC1CCCN(Cc2c(O)ccc3c(=O)c(-c4ccc(Cl)cc4)coc23)C1 (centres undefined) | inactive: -1.8% |
| COc1ccc(-c2cc3c(=O)n(CC(=O)NCc4cccnc4)nc(C)n3n2)cc1 | inactive: -2.96% |
| O=C1CCCC(=NNC(=O)c2cc3ccccc3cc2O)C1 | inconclusive: 51.4% |
| CC1(OC(=O)C2CCCC2)C(=O)C=C2C=C(c3ccc(C#N)cc3)OC=C2C1=O (centres undefined) | inconclusive: 8.7% |
| CCOc1ccc2c(c1)c(N=Nc1cccc(C(=O)O)c1)c(O)n2C | inconclusive: 5.44% |
